From the supplement of paper PMC12230231
± gives the standard deviation of the averaged measurements. Restriction of a single-cycle SIVsab GFP reporter by TRIM5α v1-loop variants in CRFK cells. Human variants: read share among cells still uninfected after two challenges over input, higher = gained restriction. Rhesus variants: share among infected cells over input, higher = lost restriction. Reporter dose not given per row. No active / inactive call per row; the paper calls a change when both replicates lie above its controls (mean + 2 SD of stop or wild-type variants, or the top frameshift score). Residues outside the varied loop are taken from Swiss-Prot. The paper reads the human single-substitution scores as noise; they and the rhesus combinations repeat poorly (rank correlation 0.3 to 0.4), indel scores repeat only for the top variants, rhesus substitutions well (0.9).

system: SIVsab (simian immunodeficiency virus of sabaeus monkeys), single-cycle GFP reporter, in CRFK cells; experiment: enrichment among uninfected cells over input (fold); higher = stronger restriction; settings: library: insertions and deletions
Protocol: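 Pools of CRFK cells expressing variants of the TRIM5α v1 loop were challenged with the single-cycle reporter, sorted by GFP and sequenced; mean of two replicates.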

Sequence	enrichment
MASGILVNVKEEVTCPICLELLTQPLSLDCGHSFCQACLTANHKKSMLDKGESSCPVCRISYQPENIRPNRHVANIVEKLREVKLSPEGQKVDHCARHGEKLLLFCQEDGKVICWLCERSQEHRGHHTFLTEEVAREYQVKLQAALEMLRQKQQEAEELEADIREEKASWKTQIQYDKTNVLADFEQLRDILDWEESNELQNLEKEEEDILKSLTNSETEMVQQTQSLRELISDLEHRLQGSVMELLQGVDGVIKRTENVTLKKPETFPKNQRRVFRAPDLKGMLEVFRELTDVRRYWVDVTVAPNNISCAVISEDKRQVSSPKPQIIYGARGTRYQTFVNFNYSITSGKHYWEVDVSKKTAWILGVCAGFQPDAMCNIEKNENYQPKYGYWVIGLEEGVKCSAFQDSSFHTPSVPFIVPLSVIICPDRVGVFLDYEACTVSFFNITNHGFLIYKFSHCSFSQPVFPYLNPRKCGVPMTLCSPSS [human TRIM5α, 8-codon deletion at 345]	0.984 ± 1.2
MASGILVNVKEEVTCPICLELLTQPLSLDCGHSFCQACLTANHKKSMLDKGESSCPVCRISYQPENIRPNRHVANIVEKLREVKLSPEGQKVDHCARHGEKLLLFCQEDGKVICWLCERSQEHRGHHTFLTEEVAREYQVKLQAALEMLRQKQQEAEELEADIREEKASWKTQIQYDKTNVLADFEQLRDILDWEESNELQNLEKEEEDILKSLTNSETEMVQQTQSLRELISDLEHRLQGSVMELLQGVDGVIKRTENVTLKKPETFPKNQRRVFRAPDLKGMLEVFRELTDVRRYWVDVTVAPNNISCAVISEDKRQVSSPKPQIIYGARGTRYQTFVNFNYCTYCTGILGSQSITSGKHYWEVDVSKKTAWILGVCAGFQPDAMCNIEKNENYQPKYGYWVIGLEEGVKCSAFQDSSFHTPSVPFIVPLSVIICPDRVGVFLDYEACTVSFFNITNHGFLIYKFSHCSFSQPVFPYLNPRKCGVPMTLCSPSS [human TRIM5α, 3-codon duplication at 344]	0.648 ± 0.31
MASGILVNVKEEVTCPICLELLTQPLSLDCGHSFCQACLTANHKKSMLDKGESSCPVCRISYQPENIRPNRHVANIVEKLREVKLSPEGQKVDHCARHGEKLLLFCQEDGKVICWLCERSQEHRGHHTFLTEEVAREYQVKLQAALEMLRQKQQEAEELEADIREEKASWKTQIQYDKTNVLADFEQLRDILDWEESNELQNLEKEEEDILKSLTNSETEMVQQTQSLRELISDLEHRLQGSVMELLQGVDGVIKRTENVTLKKPETFPKNQRRVFRAPDLKGMLEVFRELTDVRRYWVDVTVAPNNISCAVISEDKRQVSSPKPQIIYGARGTRYQTGARGTRYQTFVNFNYCTGILGSQSITSGKHYWEVDVSKKTAWILGVCAGFQPDAMCNIEKNENYQPKYGYWVIGLEEGVKCSAFQDSSFHTPSVPFIVPLSVIICPDRVGVFLDYEACTVSFFNITNHGFLIYKFSHCSFSQPVFPYLNPRKCGVPMTLCSPSS [human TRIM5α, 9-codon duplication at 330]	0.304 ± 0.21
MASGILVNVKEEVTCPICLELLTQPLSLDCGHSFCQACLTANHKKSMLDKGESSCPVCRISYQPENIRPNRHVANIVEKLREVKLSPEGQKVDHCARHGEKLLLFCQEDGKVICWLCERSQEHRGHHTFLTEEVAREYQVKLQAALEMLRQKQQEAEELEADIREEKASWKTQIQYDKTNVLADFEQLRDILDWEESNELQNLEKEEEDILKSLTNSETEMVQQTQSLRELISDLEHRLQGSVMELLQGVDGVIKRTENVTLKKPETFPKNQRRVFRAPDLKGMLEVFRELTDVRRYWVDVTVAPNNISCAVISEDKRQVSSPKPQIIYGARGTRYQTGILGSQSITSGKHYWEVDVSKKTAWILGVCAGFQPDAMCNIEKNENYQPKYGYWVIGLEEGVKCSAFQDSSFHTPSVPFIVPLSVIICPDRVGVFLDYEACTVSFFNITNHGFLIYKFSHCSFSQPVFPYLNPRKCGVPMTLCSPSS [human TRIM5α, 8-codon deletion at 339]	0.844 ± 0.34
